Source: the supplement of paper PMC8728848
Some of the results follow.

Experiments:
Test in all cases: glycan array binding signal (z-score within array); higher = stronger binding
Conditions in all cases: glycan notation: IUPAC condensed, linker removed
Neu5Ac(a2-8)Neu5Ac = molecular target: Neu5Ac(a2-8)Neu5Ac
Procedure, shortened: (§1)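 The binding signal is a Z-score computed within each array and averaged over linkers. Arrays of the same protein sequence at different concentrations or buffers were also averaged together. Data originate from 3228 arrays in the Consortium for Functional Glycomics database, kept only where the protein sequence was available.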

[1] = molecular target: Neu5Ac(a2-8)Neu5Ac(a2-3)Gal(b1-3)GalNAc(b1-4)[Neu5Ac(a2-3)]Gal(b1-4)Glc
Procedure, shortened: as §1

[2] = molecular target: Neu5Ac(a2-8)Neu5Ac(a2-3)Gal(b1-3)GalNAc(b1-4)[Neu5Ac(a2-8)Neu5Ac(a2-3)]Gal(b1-4)Glc
Procedure, shortened: as §1

[3] = molecular target: Neu5Ac(a2-8)Neu5Ac(a2-3)Gal(b1-4)Glc
Procedure, shortened: as §1

[4] = molecular target: Neu5Ac(a2-8)Neu5Ac(a2-3)Gal(b1-4)GlcNAc
Procedure, shortened: as §1

[5] = molecular target: Neu5Ac(a2-8)Neu5Ac(a2-3)[Gal(b1-3)GalNAc(b1-4)]Gal(b1-4)Glc
Procedure, shortened: as §1

[6] = molecular target: Neu5Ac(a2-8)Neu5Ac(a2-3)[GalNAc(b1-4)]Gal(b1-4)Glc
Procedure, shortened: as §1

[7] = molecular target: Neu5Ac(a2-8)Neu5Ac(a2-8)Neu5Ac
Procedure, shortened: as §1

[8] = molecular target: Neu5Ac(a2-8)Neu5Ac(a2-8)Neu5Ac(a2-3)Gal(b1-4)Glc
Procedure, shortened: as §1

[9] = molecular target: Neu5Ac(a2-8)Neu5Ac(a2-8)Neu5Ac(a2-3)[Gal(b1-3)GalNAc(b1-4)]Gal(b1-4)Glc
Procedure, shortened: as §1

[10] = molecular target: Neu5Ac(a2-8)Neu5Ac(a2-8)Neu5Ac(a2-3)[GalNAc(b1-4)]Gal(b1-4)Glc
Procedure, shortened: as §1

[11] = molecular target: Neu5Ac(a2-8)Neu5Ac(a2-8)Neu5Ac(a2-8)Neu5Ac(a2-3)[GalNAc(b1-4)]Gal(b1-4)Glc
Procedure, shortened: as §1

[12] = molecular target: Neu5Ac(a2-8)Neu5Gc(a2-3)Gal(b1-4)GlcNAc
Procedure, shortened: as §1

[13] = molecular target: Neu5Ac(b2-6)Gal(b1-4)GlcNAc
Procedure, shortened: as §1

Neu5Ac(b2-6)GalNAc = molecular target: Neu5Ac(b2-6)GalNAc
Procedure, shortened: as §1

[14] = molecular target: Neu5Ac9Ac(a2-3)Gal(b1-3)GlcNAc
Procedure, shortened: as §1

[15] = molecular target: Neu5Ac9Ac(a2-3)Gal(b1-4)GlcNAc
Procedure, shortened: as §1

[16] = molecular target: Neu5Ac9Ac(a2-6)Gal(b1-4)GlcNAc
Procedure, shortened: as §1

[17] = molecular target: Neu5Gc(a2-3)Gal(b1-3)GlcNAc
Procedure, shortened: as §1

[18] = molecular target: Neu5Gc(a2-3)Gal(b1-3)[Fuc(a1-4)]GlcNAc
Procedure, shortened: as §1

Neu5Gc(a2-3)Gal(b1-4)Glc = molecular target: Neu5Gc(a2-3)Gal(b1-4)Glc
Procedure, shortened: as §1

[19] = molecular target: Neu5Gc(a2-3)Gal(b1-4)GlcNAc
Procedure, shortened: as §1

[20] = molecular target: Neu5Gc(a2-3)Gal(b1-4)GlcNAc(b1-3)Gal(b1-4)GlcNAc(b1-2)Man(a1-3)[Neu5Gc(a2-3)Gal(b1-4)GlcNAc(b1-3)Gal(b1-4)GlcNAc(b1-2)Man(a1-6)]Man(b1-4)GlcNAc(b1-4)GlcNAc
Procedure, shortened: as §1

[21] = molecular target: Neu5Gc(a2-3)Gal(b1-4)[Fuc(a1-3)]GlcNAc
Procedure, shortened: as §1

[22] = molecular target: Neu5Gc(a2-6)Gal(b1-4)GlcNAc
Procedure, shortened: as §1

Neu5Gc(a2-6)GalNAc = molecular target: Neu5Gc(a2-6)GalNAc
Procedure, shortened: as §1

[23] = molecular target: Neu5Gc(a2-8)Neu5Ac(a2-3)Gal(b1-4)GlcNAc
Procedure, shortened: as §1

[24] = molecular target: Neu5Gc(a2-8)Neu5Gc(a2-3)Gal(b1-4)GlcNAc
Procedure, shortened: as §1

[25] = molecular target: Neu5Gc(a2-8)Neu5Gc(a2-3)Gal(b1-4)GlcNAc(b1-3)Gal(b1-4)GlcNAc
Procedure, shortened: as §1

[26] = molecular target: Neu5Gc(a2-8)Neu5Gc(a2-6)Gal(b1-4)GlcNAc
Procedure, shortened: as §1

[27] = molecular target: Neu5Gc(b2-6)Gal(b1-4)GlcNAc
Procedure, shortened: as §1

B1: LgFlo1 (Saccharomyces pastorianus), B3IUA8 (protein)
chain: SGSTQACLPVGSRKNGMNVNFYKYSLQDSTTYSDPQYMAYKYSDTKKLGSVSGQTHLSIYYGPNTAFWNTASWSSDLFGFYTTPTNVTVEMTGYFLPPQTGSYTFKFATVDDSAILSVGGSIAFECCAQEQPPITSTDFTINGIKPWDAATPTDIKGSTYMYAGYYYPIKIVYSNAKALARLPVSVVLPDGTEVNDDFEGYVYSFDDDLSQSNCTIPDPSKHTTS
Question: Which results are given for B1?
Answer: glycan array binding signal (z-score) (Neu5Ac(a2-8)Neu5Ac): -0.117; glycan array binding signal (z-score) [1]: -0.023; glycan array binding signal (z-score) [2]: 0.215; glycan array binding signal (z-score) [3]: -0.354; glycan array binding signal (z-score) [4]: -0.232; glycan array binding signal (z-score) [5]: -0.149; glycan array binding signal (z-score) [6]: -0.161; glycan array binding signal (z-score) [7]: -0.232; glycan array binding signal (z-score) [8]: -0.25; glycan array binding signal (z-score) [9]: 0.076; glycan array binding signal (z-score) [10]: -0.074; glycan array binding signal (z-score) [11]: 0.133; glycan array binding signal (z-score) [12]: -0.104; glycan array binding signal (z-score) [13]: -0.214; glycan array binding signal (z-score) (Neu5Ac(b2-6)GalNAc): -0.069; glycan array binding signal (z-score) [14]: -0.251; glycan array binding signal (z-score) [15]: 0.32; glycan array binding signal (z-score) [16]: -0.397; glycan array binding signal (z-score) [17]: -0.425; glycan array binding signal (z-score) [18]: -0.112; glycan array binding signal (z-score) (Neu5Gc(a2-3)Gal(b1-4)Glc): 0.165; glycan array binding signal (z-score) [19]: 0.216; glycan array binding signal (z-score) [20]: -0.305; glycan array binding signal (z-score) [21]: -0.261; glycan array binding signal (z-score) [22]: 0.383; glycan array binding signal (z-score) (Neu5Gc(a2-6)GalNAc): 0.16; glycan array binding signal (z-score) [23]: -0.251; glycan array binding signal (z-score) [24]: -0.265; glycan array binding signal (z-score) [25]: -0.163; glycan array binding signal (z-score) [26]: -0.346; glycan array binding signal (z-score) [27]: -0.24
